# Measurements as given in PubChem BioAssay AID1963576 (National Center for Advancing Translational Sciences (NCATS), 2024).
# The campaign covered roughly 46,000 compounds. About 60 (0.1%) were called active. Not shown: some 3% with an inconclusive outcome. Calls follow the shape of the dose curve; as a rule, active = well fitted inhibition curve with a large enough effect; inconclusive = small, poorly fitted or top-dose-only effect; inactive = no such curve, though single readings can be large or run the other way. Some of the results follow.
# Test: Primary qHTS assay for Inhibitors of ovarian cancer metastasis using an organotypic tumor microenvironment (TME) model. Also: nearly all actives have a fitted effect of over 65% in size.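 As to activity change, negative = inhibition: plate controls were DMSO wells for no effect and tomatine positive control wells for full effect.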
# Conditions: SKOV3ip1-GFP adhesion/invasion on 3D omental model, fluorescence; series mostly up to 45.8 µM; activity change, negative = inhibition: at the top concentration
# Method in brief: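 Primary human omental fibroblast/mesothelial 3D culture pre-formed 48 h. SKOV3ip1-GFP cells added with compounds (0.36-46 umol/L), incubated 2 h RT/16 h 37 C, fixed; GFP cells quantified at 488/509 nm.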
SMILES,"activity change, negative = inhibition",outcome
COc1cc(OC)c(NC(=O)C(c2ccccc2)N2Cc3ccccc3C2=O)cc1Cl (stereo not given),inactive: -14%,
COc1ccc(NC(=O)C2CCN(S(=O)(=O)c3ccc4[nH]c(=O)ccc4c3)CC2)cc1Cl,inactive: 22%,
COc1ccc(N2CC(NC(=O)/C=C\c3ccc4c(c3)OCO4)CC2=O)cc1 (stereo not given),inactive: -7.9%,
O=C(Nc1nonc1-c1ccc(Cl)cc1)c1ccccc1F,inactive: 22.3%,
COc1ccc(CCNC(=O)C2(c3cccs3)CCOCC2)cc1,,inactive
CCOC(=O)c1scc(-c2ccccc2)c1S(=O)(=O)Nc1ccc(N(C)C)cc1,inactive: -6.94%,
CC(C)CN(CCCNC(=O)c1cc(-c2ccc(Br)s2)nc2ccccc12)CC(C)C,inactive: -27.7%,
COc1cccc(-c2nc(CS(=O)(=O)CC(=O)NCCc3ccc(OC)cc3OC)c(C)o2)c1,inactive: -5.26%,
CCCC(CCC)C(=O)Nc1cccc(-c2nc3cccnc3s2)c1C,inactive: -5.77%,
Cc1cccc(CCNC(=O)C2CCC(CNS(=O)(=O)c3ccccc3)CC2)c1 (stereo not given),inactive: -8.87%,
O=c1c(O)c(-c2ccc(O)c(O)c2)oc2cc(O)ccc12,inactive: -4.57%,
CCOc1cc(C(=O)Nc2ccc3nc(Nc4cccc(Cl)c4)cc(C)c3c2)cc(OCC)c1OCC,inactive: 72.8%,
CCCCCCNc1nc2c(c(=O)n(C)c(=O)n2C)n1Cc1cccc(C)c1,inactive: 1.31%,
COCCCNC(=O)c1ccc(Cn2c(=O)c3ccccc3n(CC(=O)Nc3c(C)cccc3C)c2=O)cc1,inactive: 9.54%,
Cc1nnc(SCc2cc(=O)n3cccc(C)c3n2)s1,inactive: 0.0576%,
Cc1nc2ccn(Cc3ccco3)c(=O)c2cc1C(=O)NCc1ccccc1F,,inactive
COc1ccc(Cl)cc1NC(=O)CSC1=Nc2ccccc2C2=NC(CCC(=O)NCc3ccc(F)cc3)C(=O)N12 (stereo not given),inactive: 6.87%,
CCOC(=O)c1ccc(NC(=O)c2cnn(-c3ccc(C)cc3C)c2C2CCN(C(=O)OC(C)(C)C)CC2)cc1,inactive: 11.3%,
O=C(NCc1ccccc1Cl)C1CCN(S(=O)(=O)Cc2ccccc2)CC1,inactive: 8.27%,
CNS(=O)(=O)Cc1ccc2[nH]cc(CCN(C)C)c2c1,inactive: 6.25%,
N#Cc1ccccc1Cn1c(=O)n(CCCC(=O)NCc2ccccc2Cl)c(=O)c2ccccc21,inactive: 1.45%,
O=C(Nc1ccc(F)c(Cl)c1)C1CCN(C(=O)c2ccc(F)cc2)CC1,inactive: -6.64%,
COc1ccc(OC)c(C2Nc3c(C)cc(C)cc3-c3cc(C)nn32)c1 (stereo not given),inactive: -7.15%,
Cc1ccc(NS(=O)(=O)c2ccc3c(c2)CC(=O)N3)cc1Cl,inactive: 1.56%,

SMILES,"activity change, negative = inhibition",outcome
CCc1c(C)sc2c1CCN(C(=O)Nc1ccccc1C(=O)OC)C2c1ccc(OC)cc1 (stereo not given),inactive: 5.63%,
CCOc1ccc(Br)cc1C1C(C(=O)OC)=C(C)NC2=C1C(=O)c1ccccc12 (stereo not given),inactive: -5.47%,
CCN(C(=O)CSc1ncc2c(n1)-c1cc(Cl)ccc1N(Cc1ccccc1)S2(=O)=O)c1cccc(C)c1,,inactive
Cc1ccc(-c2cc3ncc(C(=O)c4cc(Cl)c(C)cc4O)cn3n2)cc1,inactive: -5.67%,
Cc1ccc(Cl)cc1NC(=O)C(Cc1ccccc1)NS(=O)(=O)c1cccc2nsnc12 (stereo not given),inactive: 0.162%,
COc1ccc(C)cc1NC(=O)c1c2c(nc3ccccc13)C(=O)N(C1CCCCC1)C2,inactive: -8.09%,
CC(C)c1ccc(C2=CC(c3cccc(Cl)c3)n3c(nc4ccccc43)N2)cc1 (stereo not given),inactive: -9.62%,
CCC(=O)N1CCc2cc(Br)cc(S(=O)(=O)N3CCCC(C(=O)Nc4cc(C)ccc4OC)C3)c21 (stereo not given),inactive: 33.9%,
CCOc1ccc(NC(=O)CN2C(=O)C(c3ccc(Cl)cc3)=NC2(C)C)cc1,inactive: -4.16%,
O=C(NCc1ccc(Cl)cc1)C1=Cc2cc(Br)ccc2OC1,inactive: 1.6%,
CCn1c(=O)cc(OCC(=O)N(C)c2ccc(OC)cc2)c2ccccc21,inactive: 4.92%,
CCCc1ccc(S(=O)(=O)N2CCC(c3nnc(-c4cccc(C)c4)o3)CC2)cc1,inactive: -8.01%,
COc1ccc(Cl)cc1C(=O)Nc1ccc2nc(Nc3cccc(Cl)c3)cc(C)c2c1,inactive: 8.48%,
COc1ccc(OC)c(CNC(=O)c2ccc3nc(C(C)C)oc3c2)c1,inactive: -15%,
COc1cc(OC)c(NC(=O)c2c(N3CCCC3=O)c3cc(C)ccc3n2C)cc1Cl,inactive: -4.02%,
CC(C)Oc1ccc(CNC(=O)c2ccc3c(c2)nc2n3CCCCC2)cc1,inactive: 2.18%,
Cc1ccccc1OCC(=O)Nc1nnc(S(=O)(=O)N2CCCC2)s1,inactive: -0.976%,
CCn1c(=O)c2cc(C(=O)NCCCN3CCN(c4ccc(F)cc4)CC3)sc2c2ccccc21,,inactive
CCOc1ccccc1NC(=O)Cn1ncc2c([nH]c3ccccc32)c1=O,inactive: -6.68%,
Cc1cc(=O)n2nc(N3CCC(C(=O)Nc4c(C)cccc4C)CC3)sc2n1,inactive: 73%,
CCOc1ccc(N2CC(c3nc4ccccc4n3CCCCOc3ccc(OC)cc3)CC2=O)cc1 (stereo not given),inactive: 2.15%,
COc1ccc(C2=C(C)C(=O)N(Cc3ccc(C(=O)NC(C)c4ccccc4)cc3)S2(=O)=O)cc1 (stereo not given),inactive: -2.43%,
Cc1cccc(OC(C)C(=O)Nc2nonc2-c2ccc(Br)cc2)c1C (stereo not given),inactive: 2.23%,
COc1ccc(CNC(=O)CN2C(=O)CSc3ccc(S(=O)(=O)N(C)C)cc32)cc1,,inactive

SMILES,"activity change, negative = inhibition",outcome
COc1ccccc1CCN1COc2c(cc3c(C)c(C)c(=O)oc3c2C)C1,inactive: 0.939%,
O=C(NC1CCCCCC1)C1c2ccccc2C(=O)N1Cc1ccc(F)cc1 (stereo not given),inactive: 12.9%,
CC1CCN(S(=O)(=O)c2cc3c4c(c2)C(C)C(=O)N4CCC3)CC1 (stereo not given),,inactive
Cc1cccc(N2C(=O)CSC23C(=O)N(CC(=O)Nc2cccc(Cl)c2)c2ccccc23)c1 (stereo not given),,inactive
Oc1c(C(c2ccccc2)N2CCOCC2)sc2nc(-c3ccco3)nn12 (stereo not given),inactive: -9.08%,
CCN(CC)c1ccc(NC(=O)CN2CCN(c3ccccc3OC)CC2)cc1,inactive: 6.39%,
CCOC(=O)c1cc(C)n(CC2CCC(C(=O)Nc3cccc(Cl)c3)CC2)c1C (stereo not given),,inactive
CCc1cccc(NC(=O)Cn2c(=O)n(CCC(=O)NCc3ccccc3Cl)c(=O)c3sccc32)c1,,inactive
Nc1c(C(=O)Nc2cccc(F)c2)nnn1-c1cccc(C(F)(F)F)c1,inactive: -7.04%,
Cc1cc(C)cc(NC(=O)c2sc3nc4n(c(=O)c3c2C)N=C(c2ccccc2)CS4)c1,inactive: -8.56%,
O=C(NCCc1ccccc1)C1CCN(Cc2cc3ccccc3n2Cc2ccccc2)CC1,inactive: 1.79%,
Cc1ccc(NC(=O)CSc2nc(-c3cccs3)nc3cc(=O)[nH]n23)cc1C,inactive: -40.5%,
CCOc1ccccc1CN1CCc2nc(N3CCN(C)CC3)ncc2C1,inactive: -1.39%,
Cc1ccc(C)c(N2CCN(S(=O)(=O)c3ccc(-c4cnc(C5CC5)o4)cc3)CC2)c1,,inactive
Cc1ccc(CNC(=O)Cn2c(=O)cc(C)c3c(C)nn(-c4cccc(F)c4)c32)cc1,inactive: 2.98%,
O=C(Cn1ncc2c3ccccc3n(Cc3cccc(Cl)c3)c2c1=O)NCCCN1CCCCC1,inactive: -5.82%,
CCOCCCNc1nc2c(S(=O)(=O)c3ccc(CC)cc3)nnn2c2ccc(Cl)cc12,inactive: -5.23%,
O=C(Nc1ccc(C(=O)N2CCN(c3ccccc3F)CC2)cc1)c1nsc2ccccc12,inactive: -0.631%,
COc1ccc(COC(=O)C2=C(C)NC(=O)CC2c2cccc(Cl)c2Cl)cc1 (stereo not given),,inactive
CCOc1ccc(-c2cc(C(=O)NC(C)c3ccccc3)c3ccccc3n2)cc1 (stereo not given),inactive: -13.2%,
CN1C(C(=O)c2ccccc2)=C(NC(=O)c2ccc(F)cc2)c2ccccc2S1(=O)=O,inactive: 1.18%,
CCc1ccc(NS(=O)(=O)c2ccc(-c3cc(C)no3)cc2)cc1,,inactive
Cc1cccc(C(=O)NC2(C(F)(F)F)N=C(c3ccccc3)N(C3CCCCC3)C2=O)c1 (stereo not given),,inactive
CCOC(=O)N1CCc2c(sc3c2c(=O)n(-c2ccc(F)cc2)c(=O)n3CC(=O)c2ccc(Cl)cc2)C1,,inactive

SMILES,"activity change, negative = inhibition",outcome
COc1ccc(-c2onc(C)c2C)cc1S(=O)(=O)Nc1cccc(C#N)c1,inactive: -6.84%,
O=C(NCCc1ccc(Cl)cc1)c1ccc2c(c1)nc1n2CCOC1,inactive: -8.4%,
CCOc1ccc(C(=O)NCC(c2ccc(Cl)cc2)N2CCCCC2)cc1 (stereo not given),inactive: 0.735%,
Nc1nc(=O)n([C@H]2C[C@H](O)[C@@H](CO)O2)cc1F,inactive: 26.5%,
CNC(=O)c1ccc(-c2cnc3ncc(Cc4ccc5ncccc5c4)n3n2)cc1F,inactive: -6.77%,
CC(=O)C1=C(c2ccc(F)cc2)N(C(C)=O)n2c(nnc2C2CCCCC2)S1,,inactive
N#CNC(=NCCCCCCOc1ccc(Cl)cc1)Nc1ccncc1,inactive: -8.89%,
CCCNC(=O)CSc1c(CCC)cnc2c1c(=O)n(C)c(=O)n2C,inactive: -2.22%,
COc1ccc(-c2nnn3c2nc(NCc2ccc(C)cc2)c2ccccc23)cc1,,inactive
CCCCNc1ccc(-c2nc(-c3ccccn3)no2)cc1[N+](=O)[O-],inactive: -2.66%,
Cc1cc(C)c(NC(=O)C(C)n2c(=O)cc(-c3ccccc3)c3c(C)nn(C)c32)c(C)c1 (stereo not given),inactive: 0.987%,
Cc1nnc2c(N3CCN(c4ccc(F)cc4)CC3)nc3ccc(C(=O)c4ccccc4)cc3n12,inactive: -3.21%,
Cc1ccccc1C(=O)OCc1cc(=O)n2nc(C3CCCCC3)sc2n1,inactive: -1.07%,
O=C(NCCc1csc(-c2cccnc2)n1)c1ccccc1,inactive: 9.75%,
CCOC(=O)c1cnc(N2CCN(c3cccc(C)c3C)CC2)c2ccccc12,,inactive
O=C(CN1C(=O)C2(SCC(=O)N2c2cccc(F)c2)c2ccccc21)NCCc1ccccc1 (stereo not given),inactive: 35.7%,
C[C@H]1[C@@H](OC(=O)CCC(=O)O)O[C@@H]2O[C@@]3(C)CC[C@@H]4[C@H](C)CC[C@@H]1[C@@]24OO3,inactive: -15.2%,
CC1CCCCN1CCCNC(=O)CN1C(=O)CSc2ccc(S(=O)(=O)N3CCOCC3)cc21 (stereo not given),inactive: -10.7%,
CCc1ccc(NC(=O)Nc2ccccc2OCc2cc(=O)n3ccccc3n2)cc1,inactive: -6.13%,
COc1ccc(OC)c(NC(=O)Cn2ccn(-c3ccc(OC)c(OC)c3)c(=O)c2=O)c1,inactive: 7.21%,
Cc1cc(Cl)ccc1NC(=O)Cc1ccc(NC(=O)N2CCCCc3ccccc32)cc1,inactive: -2.66%,
COC(=O)c1cccc(NC2=NS(=O)(=O)c3ccccc32)c1,inactive: 1.11%,
Cc1ccc(Nc2c(-c3ccc(C)s3)nc3ccccn23)cc1,,inactive
